In publication PMC4011580:
No constants are given. Whether binding was seen depends on the method and setting. In cells and extracts the contact can be indirect. Some entries that bind do so weakly or less than the wild type. For part of these data: Where a sequence is shown, tags or fusion partners need not be part of it. Each block holds one substance with its values, some of them ahead of it.

Chains of the proteins cited; added tags and fusions are not shown. Lines headed by an entry give the natural chain unless they say otherwise; changes in a name come on top. A line that says so, or that is headed by a name, gives the form on record, which may keep a tag or linker.
UniProt Q9Y297: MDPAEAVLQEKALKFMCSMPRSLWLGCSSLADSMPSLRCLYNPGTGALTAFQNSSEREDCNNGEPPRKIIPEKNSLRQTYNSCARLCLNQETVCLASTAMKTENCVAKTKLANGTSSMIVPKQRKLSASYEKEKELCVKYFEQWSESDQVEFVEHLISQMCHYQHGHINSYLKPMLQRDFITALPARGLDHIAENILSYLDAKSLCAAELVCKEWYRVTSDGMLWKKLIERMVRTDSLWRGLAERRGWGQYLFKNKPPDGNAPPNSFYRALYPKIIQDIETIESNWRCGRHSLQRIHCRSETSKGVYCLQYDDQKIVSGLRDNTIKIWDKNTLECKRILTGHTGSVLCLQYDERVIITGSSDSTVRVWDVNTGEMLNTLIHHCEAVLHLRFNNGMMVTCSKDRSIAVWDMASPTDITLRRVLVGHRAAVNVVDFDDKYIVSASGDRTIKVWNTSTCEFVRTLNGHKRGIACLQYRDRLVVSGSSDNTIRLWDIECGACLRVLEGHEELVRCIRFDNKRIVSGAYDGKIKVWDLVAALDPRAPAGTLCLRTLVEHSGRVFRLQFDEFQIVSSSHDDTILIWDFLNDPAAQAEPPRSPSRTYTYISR
Flag-β-TRCP1 (wild type) (Q9Y297, form named): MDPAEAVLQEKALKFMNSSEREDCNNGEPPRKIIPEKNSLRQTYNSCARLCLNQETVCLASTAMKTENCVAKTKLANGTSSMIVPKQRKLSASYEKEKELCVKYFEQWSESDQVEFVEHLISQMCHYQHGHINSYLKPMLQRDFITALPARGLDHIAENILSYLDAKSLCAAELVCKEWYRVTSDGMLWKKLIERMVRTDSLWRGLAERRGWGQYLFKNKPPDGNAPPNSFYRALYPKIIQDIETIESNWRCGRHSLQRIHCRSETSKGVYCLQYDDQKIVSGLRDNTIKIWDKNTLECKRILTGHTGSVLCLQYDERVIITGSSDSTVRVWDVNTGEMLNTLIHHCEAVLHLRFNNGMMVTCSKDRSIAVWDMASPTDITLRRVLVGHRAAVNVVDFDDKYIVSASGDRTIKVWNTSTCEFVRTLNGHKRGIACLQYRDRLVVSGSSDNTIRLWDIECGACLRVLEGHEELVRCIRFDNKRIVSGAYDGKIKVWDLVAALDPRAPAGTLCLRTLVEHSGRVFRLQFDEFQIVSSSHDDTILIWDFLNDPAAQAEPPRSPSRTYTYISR
UniProt Q13619: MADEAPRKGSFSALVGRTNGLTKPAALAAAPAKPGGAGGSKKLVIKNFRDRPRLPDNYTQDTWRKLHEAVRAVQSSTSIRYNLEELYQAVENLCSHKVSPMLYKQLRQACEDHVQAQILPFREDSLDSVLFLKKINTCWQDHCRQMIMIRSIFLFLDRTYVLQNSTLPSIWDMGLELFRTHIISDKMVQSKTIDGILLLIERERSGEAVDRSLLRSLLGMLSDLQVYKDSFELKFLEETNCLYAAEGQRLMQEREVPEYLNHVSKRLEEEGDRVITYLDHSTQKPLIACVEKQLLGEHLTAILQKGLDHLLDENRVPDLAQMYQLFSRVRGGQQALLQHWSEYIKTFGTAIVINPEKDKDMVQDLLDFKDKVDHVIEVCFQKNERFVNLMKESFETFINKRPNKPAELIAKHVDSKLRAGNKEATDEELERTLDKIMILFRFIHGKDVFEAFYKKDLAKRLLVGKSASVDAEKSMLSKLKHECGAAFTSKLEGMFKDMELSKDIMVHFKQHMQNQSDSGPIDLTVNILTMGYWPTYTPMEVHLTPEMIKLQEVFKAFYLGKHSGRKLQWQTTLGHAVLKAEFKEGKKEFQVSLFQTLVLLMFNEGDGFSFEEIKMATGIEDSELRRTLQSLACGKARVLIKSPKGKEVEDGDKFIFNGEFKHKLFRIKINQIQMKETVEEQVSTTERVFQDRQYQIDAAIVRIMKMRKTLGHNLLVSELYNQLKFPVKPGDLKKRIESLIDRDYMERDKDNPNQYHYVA
UniProt Q13616: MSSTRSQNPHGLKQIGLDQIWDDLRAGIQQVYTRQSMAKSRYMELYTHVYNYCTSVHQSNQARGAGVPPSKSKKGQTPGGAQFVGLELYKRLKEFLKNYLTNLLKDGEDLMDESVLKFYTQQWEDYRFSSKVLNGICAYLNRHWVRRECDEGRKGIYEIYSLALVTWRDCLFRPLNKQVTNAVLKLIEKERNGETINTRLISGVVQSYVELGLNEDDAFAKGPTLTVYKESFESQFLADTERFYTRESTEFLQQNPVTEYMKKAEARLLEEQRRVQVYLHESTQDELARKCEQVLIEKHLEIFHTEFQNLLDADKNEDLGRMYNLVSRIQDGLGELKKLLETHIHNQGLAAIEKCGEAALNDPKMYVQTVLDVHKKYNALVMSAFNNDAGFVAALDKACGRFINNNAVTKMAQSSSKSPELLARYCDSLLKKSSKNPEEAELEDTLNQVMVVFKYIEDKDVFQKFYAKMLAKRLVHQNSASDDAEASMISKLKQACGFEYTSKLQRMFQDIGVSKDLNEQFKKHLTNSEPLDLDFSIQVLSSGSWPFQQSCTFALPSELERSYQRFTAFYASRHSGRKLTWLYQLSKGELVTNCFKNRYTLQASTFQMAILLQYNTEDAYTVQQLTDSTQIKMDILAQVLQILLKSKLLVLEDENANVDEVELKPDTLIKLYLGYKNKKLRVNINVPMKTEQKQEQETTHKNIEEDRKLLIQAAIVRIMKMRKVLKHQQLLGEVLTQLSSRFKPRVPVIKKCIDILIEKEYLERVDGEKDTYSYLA
UniProt P49674: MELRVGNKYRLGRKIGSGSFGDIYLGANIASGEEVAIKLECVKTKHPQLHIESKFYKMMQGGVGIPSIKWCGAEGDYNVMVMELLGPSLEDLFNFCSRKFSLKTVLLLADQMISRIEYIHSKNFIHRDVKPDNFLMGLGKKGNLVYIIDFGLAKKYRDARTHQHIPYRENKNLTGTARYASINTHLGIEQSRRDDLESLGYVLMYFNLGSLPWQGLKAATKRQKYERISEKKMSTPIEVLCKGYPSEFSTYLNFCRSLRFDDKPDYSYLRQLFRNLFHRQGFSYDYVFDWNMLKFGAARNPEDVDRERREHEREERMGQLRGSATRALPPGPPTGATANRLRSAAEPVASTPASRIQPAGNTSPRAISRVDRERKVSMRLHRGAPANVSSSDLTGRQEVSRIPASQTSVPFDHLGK
UniProt P63208: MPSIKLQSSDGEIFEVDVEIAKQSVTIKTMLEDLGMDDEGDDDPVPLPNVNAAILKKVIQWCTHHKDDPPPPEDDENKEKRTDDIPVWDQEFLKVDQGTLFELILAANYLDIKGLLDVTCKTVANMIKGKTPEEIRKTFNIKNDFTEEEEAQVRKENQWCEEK
UniProt P46934: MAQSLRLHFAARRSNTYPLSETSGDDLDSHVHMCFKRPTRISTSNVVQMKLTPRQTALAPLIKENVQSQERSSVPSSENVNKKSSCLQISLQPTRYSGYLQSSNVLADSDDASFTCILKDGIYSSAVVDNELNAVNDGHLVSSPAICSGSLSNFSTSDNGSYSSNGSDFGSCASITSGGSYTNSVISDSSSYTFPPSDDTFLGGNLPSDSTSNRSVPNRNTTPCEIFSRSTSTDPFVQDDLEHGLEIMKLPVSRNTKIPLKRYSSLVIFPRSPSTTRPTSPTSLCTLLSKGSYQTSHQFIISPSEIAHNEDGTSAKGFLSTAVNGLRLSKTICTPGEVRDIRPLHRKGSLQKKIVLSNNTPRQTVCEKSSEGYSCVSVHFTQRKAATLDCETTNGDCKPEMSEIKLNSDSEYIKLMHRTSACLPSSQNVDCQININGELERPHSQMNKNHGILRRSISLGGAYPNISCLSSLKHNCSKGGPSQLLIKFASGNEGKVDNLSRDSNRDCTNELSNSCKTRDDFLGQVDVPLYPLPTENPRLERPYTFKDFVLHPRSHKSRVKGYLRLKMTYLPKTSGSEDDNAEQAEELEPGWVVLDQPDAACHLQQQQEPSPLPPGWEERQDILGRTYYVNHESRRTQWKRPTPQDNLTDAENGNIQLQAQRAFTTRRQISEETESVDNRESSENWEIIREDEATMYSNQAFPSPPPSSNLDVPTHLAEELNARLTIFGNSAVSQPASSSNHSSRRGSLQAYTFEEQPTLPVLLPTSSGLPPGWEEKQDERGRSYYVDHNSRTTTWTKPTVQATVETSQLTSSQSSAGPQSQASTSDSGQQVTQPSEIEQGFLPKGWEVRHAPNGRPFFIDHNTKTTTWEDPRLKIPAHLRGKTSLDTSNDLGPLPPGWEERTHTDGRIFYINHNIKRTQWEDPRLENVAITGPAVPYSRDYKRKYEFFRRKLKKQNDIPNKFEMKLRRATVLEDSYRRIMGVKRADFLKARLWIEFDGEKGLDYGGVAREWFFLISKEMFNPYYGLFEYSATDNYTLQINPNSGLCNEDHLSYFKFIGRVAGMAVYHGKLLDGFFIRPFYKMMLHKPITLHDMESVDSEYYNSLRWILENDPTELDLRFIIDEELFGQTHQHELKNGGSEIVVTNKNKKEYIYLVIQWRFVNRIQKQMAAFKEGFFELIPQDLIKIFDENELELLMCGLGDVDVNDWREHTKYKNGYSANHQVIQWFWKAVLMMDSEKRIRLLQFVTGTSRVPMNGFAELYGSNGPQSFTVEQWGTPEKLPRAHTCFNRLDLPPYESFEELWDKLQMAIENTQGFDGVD
HA-NEDD4 (wild type) (P46934-4, form named): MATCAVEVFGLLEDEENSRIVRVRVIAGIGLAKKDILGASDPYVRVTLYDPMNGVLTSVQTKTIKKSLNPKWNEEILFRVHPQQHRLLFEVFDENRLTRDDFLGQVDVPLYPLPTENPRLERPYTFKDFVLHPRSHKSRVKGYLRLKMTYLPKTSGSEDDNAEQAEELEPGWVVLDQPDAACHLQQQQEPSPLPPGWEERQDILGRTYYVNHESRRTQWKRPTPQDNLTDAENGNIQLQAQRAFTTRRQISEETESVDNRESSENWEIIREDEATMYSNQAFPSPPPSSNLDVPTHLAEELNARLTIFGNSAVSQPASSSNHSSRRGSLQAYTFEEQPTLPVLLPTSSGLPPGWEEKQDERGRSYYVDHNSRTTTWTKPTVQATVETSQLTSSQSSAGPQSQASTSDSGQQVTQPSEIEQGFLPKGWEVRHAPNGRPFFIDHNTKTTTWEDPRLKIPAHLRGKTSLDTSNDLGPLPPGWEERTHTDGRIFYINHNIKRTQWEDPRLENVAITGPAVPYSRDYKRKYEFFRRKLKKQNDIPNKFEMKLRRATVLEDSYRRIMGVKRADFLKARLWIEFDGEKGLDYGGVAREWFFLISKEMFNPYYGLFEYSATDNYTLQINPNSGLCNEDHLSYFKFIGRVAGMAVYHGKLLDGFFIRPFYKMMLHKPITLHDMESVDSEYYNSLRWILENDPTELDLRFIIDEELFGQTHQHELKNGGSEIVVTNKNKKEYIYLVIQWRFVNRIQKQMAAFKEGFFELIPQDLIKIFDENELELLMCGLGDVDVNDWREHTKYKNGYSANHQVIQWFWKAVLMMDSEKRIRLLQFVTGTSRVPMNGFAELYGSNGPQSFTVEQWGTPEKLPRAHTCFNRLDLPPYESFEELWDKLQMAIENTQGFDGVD
HA-S408A-NEDD4 (P46934-4, form named): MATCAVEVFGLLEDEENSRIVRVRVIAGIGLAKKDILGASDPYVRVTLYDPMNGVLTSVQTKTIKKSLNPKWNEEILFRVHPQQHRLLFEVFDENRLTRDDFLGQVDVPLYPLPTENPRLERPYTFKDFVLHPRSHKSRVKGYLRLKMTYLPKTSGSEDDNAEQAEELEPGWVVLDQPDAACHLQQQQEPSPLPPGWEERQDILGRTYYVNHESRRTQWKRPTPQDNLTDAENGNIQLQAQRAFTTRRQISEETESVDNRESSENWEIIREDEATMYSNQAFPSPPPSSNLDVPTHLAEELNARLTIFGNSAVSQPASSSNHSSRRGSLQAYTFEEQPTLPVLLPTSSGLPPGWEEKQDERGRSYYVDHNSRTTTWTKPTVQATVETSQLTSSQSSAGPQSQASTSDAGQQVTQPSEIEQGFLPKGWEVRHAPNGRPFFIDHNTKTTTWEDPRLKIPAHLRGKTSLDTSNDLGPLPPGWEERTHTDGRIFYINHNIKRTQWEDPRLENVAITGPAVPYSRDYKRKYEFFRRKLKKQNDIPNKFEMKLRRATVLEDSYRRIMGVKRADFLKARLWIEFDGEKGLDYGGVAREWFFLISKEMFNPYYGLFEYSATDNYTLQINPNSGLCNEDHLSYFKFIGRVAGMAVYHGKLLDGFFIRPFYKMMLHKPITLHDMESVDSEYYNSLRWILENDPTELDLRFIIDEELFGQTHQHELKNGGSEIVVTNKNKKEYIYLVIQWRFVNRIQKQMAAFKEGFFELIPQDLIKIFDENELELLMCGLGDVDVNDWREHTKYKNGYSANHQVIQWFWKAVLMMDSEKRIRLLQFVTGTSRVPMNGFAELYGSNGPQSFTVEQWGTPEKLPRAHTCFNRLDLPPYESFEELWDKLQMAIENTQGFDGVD

Columns and labels:
[1] = target: T1, GST-Fbl18 (UniProt Q96ME1); assay: co-IP; 293T cells transfected with Flag-NEDD4 and GST-F-box protein constructs; immunoblot of whole cell lysates and immunoprecipitates (Figure 1B); which partner was precipitated is not stated
T1 sequence: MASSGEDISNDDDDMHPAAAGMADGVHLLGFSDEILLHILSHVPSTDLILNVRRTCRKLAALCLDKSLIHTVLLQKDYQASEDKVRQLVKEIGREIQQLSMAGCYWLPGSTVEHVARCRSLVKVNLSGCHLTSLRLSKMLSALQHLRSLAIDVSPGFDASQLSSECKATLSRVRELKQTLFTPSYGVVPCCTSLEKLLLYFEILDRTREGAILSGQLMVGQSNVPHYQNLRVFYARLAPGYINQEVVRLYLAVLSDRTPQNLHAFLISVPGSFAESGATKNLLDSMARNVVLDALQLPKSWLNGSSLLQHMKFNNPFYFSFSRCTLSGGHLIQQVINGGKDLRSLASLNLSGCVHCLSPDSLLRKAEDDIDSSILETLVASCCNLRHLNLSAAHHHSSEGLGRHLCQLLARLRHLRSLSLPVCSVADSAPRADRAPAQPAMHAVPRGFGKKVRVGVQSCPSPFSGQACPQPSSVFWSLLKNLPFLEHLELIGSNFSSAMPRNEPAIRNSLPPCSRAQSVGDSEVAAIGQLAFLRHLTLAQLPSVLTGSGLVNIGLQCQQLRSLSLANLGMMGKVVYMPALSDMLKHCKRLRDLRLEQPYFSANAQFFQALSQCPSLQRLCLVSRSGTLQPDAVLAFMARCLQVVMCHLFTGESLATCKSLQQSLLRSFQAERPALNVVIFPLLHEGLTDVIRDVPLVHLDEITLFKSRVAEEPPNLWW

[2] = target: GST-β-TRCP1 (UniProt Q9Y297); assay: as above
[3] = target: Myc-Cullin 2 (UniProt Q13617); assay: co-IP; 293T cells transfected with Myc-tagged Cullin constructs or empty vector; lysis in EBC buffer (50 mM Tris pH 8.0, 120 mM NaCl, 0.5% NP-40), antibody overnight at 4 °C, Protein A sepharose, NETN washes; immunoblot (Figure 1A)
[4] = target: Myc-Cullin 4A (UniProt Q13619); assay: as above
[5] = target: Myc-Cullin 5 (UniProt Q93034); assay: as above
[6] = target: Myc-Cullin 1 (UniProt Q13616); assay: as above
[7] = target: Myc-Cullin 3 (UniProt Q13618); assay: as above
[8] = target: Flag-β-TRCP1 (wild type) (UniProt Q9Y297); assay: co-IP; HeLa cells transfected with HA-NEDD4 (wild type or mutant) and Myc-tagged CKI isoforms or Flag-β-TRCP1; EBC lysis, antibody overnight at 4 °C, Protein A sepharose, NETN washes; immunoblot (Figures 3C, 4B)
[9] = target: Myc-CKIα (UniProt P48729); assay: as above
[10] = target: Myc-CKIδ (UniProt P48730); assay: as above
[11] = target: Myc-CKIε (UniProt P49674); assay: as above
[12] = target: Flag-β-TRCP1 (wild type) (UniProt Q9Y297); assay: co-IP; 293T cells transfected with HA-NEDD4 and a Flag- or Myc-tagged partner; EBC lysis, antibody overnight at 4 °C, Protein A sepharose, NETN washes; immunoblot (Figure 1D-G); in Figure 1E lysates were pre-treated with λ-phosphatase where indicated
[13] = target: Myc-Skp1 (UniProt P63208); assay: as above
[14] = target: NEDD4 (endogenous, HeLa) (human (endogenous in HeLa)) (UniProt P46934); assay: co-IP; endogenous proteins; HeLa cell extracts immunoprecipitated with antibody against NEDD4 or control IgG; immunoblot (Figure 1C)

Substance: Flag-NEDD4 (from UniProt P46934-4 1-900)
binding [1]: binds weakly
binding [2]: binds

Substance: HA-S408A-NEDD4 (from UniProt P46934-4 1-900)
binding [8]: binds

Substance: β-TRCP1 (endogenous, HeLa) (from UniProt Q9Y297 1-605)
binding [14]: binds

Second part, the substance after the results:

binding [3]: no binding
binding [4]: no binding
binding [5]: no binding
binding [6]: binds
binding [7]: no binding
Substance: NEDD4 (in 293T cells transfected with Myc-Cullin constructs) (from UniProt P46934 1-1319)

binding [9]: no binding
binding [10]: binds
binding [11]: no binding
binding [8]: binds
binding [12]: binds
binding [13]: binds
Substance: HA-NEDD4 (wild type) (from UniProt P46934-4 1-900)
